Among all 130,000 compounds or so, about 1,900 (1.5%) were called active. The shares of active, inactive and inconclusive entries below differ from those in the screen. The call rests on the fitted dose curve; in most records, active means well fitted cell-killing curve with a large enough effect; inconclusive means small, poorly fitted or top-dose-only effect; inactive means no such curve, though single readings can be large or run the other way. Potencies beside an inconclusive call are fits to weak or partial responses and may not hold up.
Test: qHTS Screen for Compounds that Selectively Target Cancer Cells with p53 Mutations: Cytotoxicity of p53ts Cells at the Nonpermissive Temperature; further: nearly all actives have a fitted effect of over 55% in size
Settings: H1299-p53A138V viability at 39C, ATP luminescence, 24 h; activity change, negative = cell killing: at 46.1 µM (top of the series)
With NC(=NC1C2CC3CC(C2)CC1C3)Nc1ccc(I)cc1 (stereo not drawn) the Potency was active: 25.1 µM.
With Cc1sc2nc3ccc(N4CCCC4)nn3c(=O)c2c1C the Potency was inconclusive: 6.31 µM [cytotoxic, partial curve].
With CCOc1ccc(OCc2cccc(C(=O)N3CCCC3)c2)cc1 the Potency was inconclusive: 10 µM [cytotoxic, partial curve].
In the case of CCCCOc1ccc(C(=O)N2CCN(CCc3ccccn3)CC2)cc1, the Potency is reported as “inactive”.
For O=C(NCc1cn(-c2ccccc2)nc1-c1ccccc1)c1ccc([N+](=O)[O-])cc1, the Potency was inconclusive: 25.1 µM [cytotoxic, single point].
In the case of CSc1nn(Cc2ccc(Cl)cc2)c(N(C(C)=O)C(C)=O)c1S(=O)(=O)c1ccccc1, the Potency is reported as inconclusive: 5.01 µM [cytotoxic, full curve].
In the case of CCOC(=O)c1cccc(NC(=O)Cn2ncc3c4ccccc4n(Cc4ccccc4)c3c2=O)c1, the Potency is reported as inconclusive: 10 µM [cytotoxic, partial curve, poor fit].
For CCn1c(=O)cc(SCC(=O)NCCc2ccc(Cl)cc2)c2ccccc21, the Potency was inconclusive: 31.6 µM [cytotoxic, single point].
For CC(C)=CC(=O)Nc1ccc(Br)cc1, the Potency was “inactive”.
With Cc1cccc(Cn2cc(C(=O)Nc3ccc(F)c(C(F)(F)F)c3)ccc2=O)c1 the Potency was inconclusive: 31.6 µM [cytotoxic, single point].
For CCOc1ccc2nc(NC(=O)c3ccc(OCC4CCCO4)cc3)sc2c1 (stereo not drawn), the Potency was inconclusive: 35.5 µM [cytotoxic, single point].
In the case of CCCCN(CC)CCNC(=O)c1cc2c(=O)oc3ccc(C)cc3c2s1, the Potency is reported as inconclusive: 31.6 µM [cytotoxic, single point].
In the case of CCn1c(SCC(=O)Nc2nc3ccccc3s2)nc2c(c1=O)SC(C)C2 (stereo not drawn), the Potency is reported as inconclusive: 20 µM [cytotoxic, partial curve].
For CCOc1ccc(C(=O)Nc2c(C(=O)Nc3ccccc3F)oc3ccccc23)cc1OCC, the Potency was inconclusive: 12.6 µM [cytotoxic, partial curve].
In the case of Cc1cccc(C)c1OCC(=O)Nc1nc(-c2ccc(Br)cc2)ns1, the Potency is reported as “inactive”.
For O=C(c1ccc2c(c1)CCN2S(=O)(=O)c1ccccc1)N1CCN(c2ccc(F)cc2)CC1, the Potency was inconclusive: 0.126 µM [cytotoxic, full curve, poor fit].
In the case of O=C(NCCc1csc(-c2ccc(Cl)cc2)n1)c1cccs1, the Potency is reported as inconclusive: 3.16 µM [cytotoxic, full curve, poor fit].
With O=S(=O)(Nc1ccc2oc3c(c2c1)CCCC3)c1cc(Cl)ccc1Cl the activity change, negative = cell killing was inconclusive: -91.8% [cytotoxic].
In the case of Cc1ccc(C(=O)C(NC(=O)c2ccco2)N2CCOCC2)cc1 (stereo not drawn), the Potency is reported as inconclusive: 10 µM [cytotoxic, partial curve].
For Cc1cccc(NC(=O)c2c(NC(=O)C(F)(F)F)sc3c2CCCCC3)c1, the Potency was inconclusive: 1 µM [cytotoxic, full curve, poor fit].
With O=C(Nc1ccc(N2CCCC2=O)cc1)c1cccc(F)c1 the Potency was inconclusive: 10 µM [cytotoxic, partial curve].
For COc1ccccc1-c1ccc2ncnc(N3CCOCC3)c2c1, the Potency was inconclusive: 15.8 µM [cytotoxic, single point].
For Cc1cc(NC(=O)c2ccc3c(c2)OCO3)ccc1NC(=O)c1ccco1, the Potency was inconclusive: 14.1 µM [cytotoxic, single point].
With O=C(NCCO)c1ccc(-n2c(=O)c(=O)[nH]c3ccccc32)cc1 the Potency was “inactive”.
With CC(C)c1ccc(NC(=O)CN(C)S(=O)(=O)c2ccc3c(c2)c(=O)n(C)c(=O)n3C)cc1 the Potency was inconclusive: 31.6 µM [cytotoxic, single point].
For O=C(CCCN1C(=O)C(c2ccccc2)Oc2cccnc21)Nc1ccc(Br)cc1F (stereo not drawn), the Potency was “inactive”.
In the case of CCOc1ccc(CCNC(=O)c2cc3c(=O)[nH]c4ccc(C)cc4c3s2)cc1OCC, the Potency is reported as “inactive”.
In the case of COc1ccc(NC(=O)Cn2c(=O)oc3cc(S(=O)(=O)N4CCC(C)CC4)ccc32)c(OC)c1, the Potency is reported as “inactive”.
With Cc1ccc(NS(=O)(=O)c2cc(Br)cc3c2N(C(=O)C2CC2)CC3)cc1C the Potency was “inactive”.
For CC(C)NCC(O)Cn1c2c(c3ccccc31)CCc1c-2cnn1-c1ccccc1 (stereo not drawn), the Potency was inconclusive: 31.6 µM [cytotoxic, single point].
In the case of Cc1cccc(/C=C(\c2nc3ccccc3[nH]2)S(=O)(=O)c2ccccc2)c1, the Potency is reported as active: 4.47 µM.
With CC(=O)c1cccc(NC(=O)c2sc(-n3nc(C)c(Cc4ccc5c(c4)OCO5)c3C)nc2C)c1 the Potency was inconclusive: 0.0631 µM [cytotoxic, full curve, poor fit].
In the case of [O-][n+]1onc2c1CCc1c-2nn(-c2ccccc2Cl)[n+]1[O-], the Potency is reported as inconclusive: 12.6 µM [cytotoxic, partial curve].
For CCOc1ccc(N2C(=O)c3ccccc3C2O)cc1 (stereo not drawn), the Potency was inconclusive: 10 µM [cytotoxic, single point].
In the case of COC(=O)c1ccc(OCC2c3cc(OC)c(OC)cc3CCN2C(=O)COc2ccc(Cl)cc2)cc1 (stereo not drawn), the Potency is reported as inconclusive: 15.8 µM [cytotoxic, partial curve, poor fit].
For Cc1ccc(C(C)C)n1C(=O)OC(C)(C)C, the activity change, negative = cell killing was inactive: 2.54% [at 9.22 µM].
In the case of C=Cc1ccc(Cn2c(C)c(CNCc3cccc(Br)c3)c(C(=O)O)c2C)cc1, the Potency is reported as inconclusive: 0.0063 µM [cytotoxic, full curve, poor fit].
In the case of Cc1c(Cl)cccc1-c1ccc(C(=O)Nc2ccc(F)cc2)o1, the Potency is reported as inconclusive: 12.6 µM [cytotoxic, single point].
For COc1ccccc1C(=O)N1CCN(c2ccccn2)CC1, the Potency was “inactive”.
In the case of CCc1ccc(-n2nc(C)c3c(C)cc(=O)n(CC(=O)N4CCCc5ccccc54)c32)cc1, the Potency is reported as “inactive”.
In the case of Cc1ccc(-n2nc(CO)c(C(=O)NCc3ccccn3)n2)cc1C, the Potency is reported as inconclusive: 0.01 µM [cytotoxic, full curve, poor fit].
With CC1CCn2c(nc3cc(C(=O)NCCc4ccc(Cl)cc4)ccc32)C1 (stereo not drawn) the Potency was “inactive”.
With CCN=c1scc(-c2ccc3c(c2)NC(=O)CO3)n1N=C1CCCC1 the Potency was “inactive”.
For CCOC(=O)c1cnc2ccc(OC)cc2c1NCCc1ccccc1, the Potency was inconclusive: 31.6 µM [cytotoxic, single point].
In the case of CNc1nc(N2CCc3ccccc32)ncc1F, the Potency is reported as inconclusive: 10 µM [cytotoxic, single point].
For O=C(NC1(C(F)(F)F)C(=O)Nc2c1c(=O)[nH]c(=O)n2CCc1ccccc1)c1ccc(Cl)cc1Cl (stereo not drawn), the Potency was “inactive”.
With CC(C)CN(CCCNC(=O)Cn1ncc2c3ccccc3n(C)c2c1=O)CC(C)C the Potency was inconclusive: 3.98 µM [cytotoxic, full curve, poor fit].
With CCOC(=O)c1cc(-c2ccccc2)n(CC(=O)NC(C)c2ccccc2)c1C (stereo not drawn) the Potency was “inactive”.
For COc1ccc(Cl)cc1NC(=O)CCS(=O)(=O)c1nc(-c2cccs2)cc(C(F)(F)F)n1, the Potency was inconclusive: 31.6 µM [cytotoxic, single point].
With CCOc1ccc(-c2nonc2NC(=O)c2oc3ccc(Br)cc3c2C)cc1 the Potency was inconclusive: 10 µM [cytotoxic, partial curve].
For CC(=O)N1CCc2c(sc3c2c(=O)n(-c2ccccc2)c(=O)n3CC(=O)Nc2cccc(C)c2)C1, the Potency was “inactive”.
With CCOc1ccc(CNS(=O)(=O)c2c(C(=O)N3CCC(C)CC3)c(C)n(C)c2C)cc1OC the Potency was “inactive”.
With COc1ccc(CCCc2nnc(SCC(=O)Nc3ncc(C)s3)o2)cc1 the Potency was inconclusive: 20 µM [cytotoxic, partial curve].
With O=C(c1ccc(CSCc2ccccc2F)o1)N1CCN(c2ccc(N3CCOCC3)nn2)CC1 the Potency was “inactive”.
With CCOC(=O)c1ccc(N2C(=O)c3n[nH]c(C)c3C2c2cccc(Br)c2)cc1 (stereo not drawn) the Potency was inconclusive: 12.6 µM [cytotoxic, single point].
In the case of COC(=O)c1ccc(COc2ncnc3c(Cl)cc(Cl)cc23)o1, the Potency is reported as inconclusive: 12.6 µM [cytotoxic, partial curve, poor fit].
For CC1CCCN(C(=O)c2cc3c(=O)n(C)c4ccccc4c3s2)C1 (stereo not drawn), the Potency was inconclusive: 31.6 µM [cytotoxic, single point].
With CCCOC(=O)Nc1ccc(N2CCCCC2)cc1 the Potency was active: 15.8 µM.
With Cc1ccc(C2CCN(C(=O)c3cnn(-c4cccc(Cl)c4)c3C3CCN(C(=O)OC(C)(C)C)CC3)C2)cc1 (stereo not drawn) the Potency was “inactive”.
In the case of COc1ccc(OC)c(NC(=O)c2cc(-c3ccc(Cl)s3)nc3ccccc23)c1, the Potency is reported as inconclusive: 1.26 µM [cytotoxic, partial curve].
In the case of Cc1cccc(-c2nnc(SCc3cc(=O)c4cccc(Cl)c4[nH]3)n2C)c1, the Potency is reported as inconclusive: 3.98 µM [cytotoxic, full curve, poor fit].
With CCOc1ccc(-n2c(SCC(=O)N3CCc4ccccc43)nc3c([nH]c4ccccc43)c2=O)cc1 the Potency was “inactive”.
With COc1ccc(-n2ncc3c(NC(C)(C)CO)ncnc32)cc1 the Potency was active: 10 µM.
For Cc1nc2cccnc2n1C1CCN(S(C)(=O)=O)CC1, the Potency was “inactive”.
In the case of Cc1ccccc1CS(=O)(=O)CCC(=O)NCCCN1CCN(c2ccccc2F)CC1, the Potency is reported as “inactive”.
With CC(=O)c1cccc(NC(=O)C(C)n2c(=O)cc(C)c3c(C)nn(-c4ccccc4)c32)c1 (stereo not drawn) the Potency was inconclusive: 25.1 µM [cytotoxic, single point].
In the case of COc1ccc(CCNC(=O)c2ccc(Nc3nc4ccccc4n4nnnc34)cc2)cc1OC, the Potency is reported as inconclusive: 5.01 µM [cytotoxic, partial curve].
In the case of CC(C)c1ccc(NC(=O)c2cc3sc(Cl)cc3n2C)cc1, the Potency is reported as inconclusive: 12.6 µM [cytotoxic, single point].

From PubChem BioAssay AID902 (National Center for Advancing Translational Sciences (NCATS), 2007)
On the % scale 0 is the no-effect control and ±100 the full control effect; potency means the concentration at half of the fitted maximal effect; tags describe the fitted curve by direction and shape.
